Test results published in the supplement of paper PMC10126150.
Values marked as one replicate rest on one cluster of the flow cell; about a third of the high ones do not repeat.

System: ATP
Experiment: switch fluorescence ratio, 500 uM ATP over buffer (Cy3 cluster intensity, sum of 5 cycles each) (fold (ratio)); higher = stronger signal-on switching upon ATP binding; sequences stand for … in TCGTCGGCAGCGTCAGATGTGTATAAGAGACAGTTTTTTTTTTTTTTTTTTTTTTTTT…TC
Settings: aptamer strand: ATP DNA aptamer (quencher-CACCTGGGGGAGTATTGCGGAGGAAGG + anchor), 100 nM annealed; ATP concentration: 500 uM; one replicate
In short: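 Between each of five buffer/ATP cycles, the flow-cell was stripped with NaOH and re-annealed. Each cycle imaged Cy3-labelled switching-strand clusters, annealed to 100 nM quencher-labelled ATP aptamer on a modified Illumina MiSeq flow-cell, first in selection buffer and then after 15 min with 500 uM ATP at 22 °C. The fluorescence ratio is summed target-cycle over summed buffer-cycle Cy3 intensity per cluster, averaged per switch-domain sequence, with clusters outside 100-1000 RFU excluded.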
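Further: ATP exposure 15 min at 22 °C before imaging.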

Row | Sequence | switch fluorescence ratio
1 | CGCGGCGAGA | 1.01
2 | CGCGGCGGGC | 1.08
3 | CGCGGGGCTA | 0.997
4 | CGCGGGTGAA | 1
5 | CGCGGTAGCT | 0.985
6 | CGCGGTTATT | 1.01
7 | CGCGGTTTCG | 1.01
8 | CGCGTAGGCC | 0.946
9 | CGCGTCAAC | 1.45
10 | CGCGTCCAA | 1.04
11 | CGCGTGTGTT | 1.05
12 | CGCTAAAAAT | 1.09
13 | CGCTACGGGA | 1.08
14 | CGCTAGAACC | 1.06
15 | CGCTAGACAT | 1
16 | CGCTAGCCCT | 1.04
17 | CGCTAGTCCG | 0.973
18 | CGCTAGTGCA | 0.983
19 | CGCTAGTTAG | 1.01
20 | CGCTCCACTG | 1.14
21 | CGCTCCTACA | 1.09
22 | CGCTCGGATG | 1.04
23 | CGCTCGGCGT | 0.985
24 | CGCTCTAGG | 1.04
25 | CGCTCTCACA | 1.09

Row | Sequence | switch fluorescence ratio
26 | CGCTCTCTGT | 1.44
27 | CGCTGATACA | 1.62
28 | CGCTGATAGG | 1.02
29 | CGCTGATGAA | 0.979
30 | CGCTTACAAA | 1.01
31 | CGCTTATGAG | 1.05
32 | CGCTTGCGAG | 1.03
33 | CGCTTGGACG | 0.979
34 | CGCTTGGCGA | 0.998
35 | CGCTTGGTTC | 0.996
36 | CGGAAAAACT | 0.984
37 | CGGAAAGCCA | 1
38 | CGGAACGATT | 1.04
39 | CGGAAGGC | 2.13
40 | CGGAATGACC | 1.18
41 | CGGAATTAGG | 1.04
42 | CGGAATTTAC | 1.68
43 | CGGACACCTA | 1.1
44 | CGGACAGCGA | 1.64
45 | CGGACAGTAT | 1.02
46 | CGGACGAA | 0.957
47 | CGGACTAAGG | 0.95
48 | CGGACTCAGG | 1.12
49 | CGGACTTATA | 1.05
50 | CGGAGAACTC | 1.09

Row | Sequence | switch fluorescence ratio
51 | CGGAGAGACA | 0.973
52 | CGGAGAGGGC | 1.09
53 | CGGAGATCTT | 1.01
54 | CGGAGCGGTT | 1.39
55 | CGGAGCTAAG | 2.29
56 | CGGAGGTAGT | 0.992
57 | CGGAGGTCTC | 1.02
58 | CGGAGGTTGG | 0.959
59 | CGGAGTCCGA | 1.01
60 | CGGAGTCGTG | 1.05
61 | CGGAGTTAAA | 1.06
62 | CGGATAATGA | 0.99
63 | CGGATAATGG | 0.963
64 | CGGATCGTGA | 0.999
65 | CGGATGAGCA | 1.02
66 | CGGATGGCAC | 1.02
67 | CGGATTCATC | 0.959
68 | CGGCAAATAT | 1.83
69 | CGGCACCCAT | 1.03
70 | CGGCACCGGT | 1.63
71 | CGGCAGGACG | 0.981
72 | CGGCATCCTA | 1.02
73 | CGGCATTGCA | 1.03
74 | CGGCCACAGA | 1.04
75 | CGGCCATGCG | 0.998

Row | Sequence | switch fluorescence ratio
76 | CGGCCCGCCT | 1.01
77 | CGGCCGACTT | 0.995
78 | CGGCCGGTA | 1.03
79 | CGGCCGTCGG | 1.04
80 | CGGCCGTGGA | 1.01
81 | CGGCCTACGG | 0.942
82 | CGGCCTGGGC | 1.03
83 | CGGCCTGGTC | 0.985
84 | CGGCCTTCGT | 1.09
85 | CGGCGAAATC | 1.04
86 | CGGCGACGCT | 1.04
87 | CGGCGACGTC | 1.02
88 | CGGCGGAAGA | 1.01
89 | CGGCGGACCC | 1.27
90 | CGGCGGCCGA | 0.929
91 | CGGCGGTTG | 0.955
92 | CGGCGTAGGA | 1.17
93 | CGGCGTGGGC | 0.997
94 | CGGCGTTTAG | 0.961
95 | CGGCTACTTG | 1.11
96 | CGGCTAGGCA | 0.987
97 | CGGCTATATC | 2.96
98 | CGGCTATTGG | 0.948
99 | CGGCTCGTTC | 0.943
100 | CGGCTGACTA | 0.984

Row | Sequence | switch fluorescence ratio
101 | CGGCTGCACG | 0.995
102 | CGGCTGCTGT | 0.982
103 | CGGGAAACTA | 1.01
104 | CGGGAAAGGT | 0.968
105 | CGGGAAGTCT | 0.847
106 | CGGGAATGGG | 0.99
107 | CGGGAGTTGC | 1.01
108 | CGGGATCACA | 1.02
109 | CGGGATGCGG | 0.955
110 | CGGGATGCTT | 1.02
111 | CGGGATGGTG | 0.886
112 | CGGGCAATT | 1.57
113 | CGGGCAGAAG | 0.975
114 | CGGGCATTCG | 1
115 | CGGGCCAGTA | 0.983
116 | CGGGCCGAAG | 0.979
117 | CGGGCCTAAT | 0.971
118 | CGGGCGTATT | 1.01
119 | CGGGCGTTGG | 0.926
120 | CGGGCTAGCT | 1.01
121 | CGGGCTCAGT | 1.02
122 | CGGGCTGGA | 1.04
123 | CGGGGACAGG | 0.965
124 | CGGGGAGAG | 0.985
125 | CGGGGAGCCC | 0.981

Row | Sequence | switch fluorescence ratio
126 | CGGGGATAGT | 1.06
127 | CGGGGATGGT | 1.02
128 | CGGGGGCCCC | 0.946
129 | CGGGGGTAAC | 1.04
130 | CGGGGGTGAA | 1.01
131 | CGGGGTAAAA | 0.993
132 | CGGGGTGATG | 0.951
133 | CGGGGTGTAG | 0.993
134 | CGGGGTTCAA | 0.939
135 | CGGGTAAATC | 0.993
136 | CGGGTAGTTC | 1.03
137 | CGGGTATCAT | 1
138 | CGGGTATCTA | 0.972
139 | CGGGTCAGCG | 1.01
140 | CGGGTCCCGA | 1.02
141 | CGGGTCCTTG | 1.02
142 | CGGGTCGCCG | 1
143 | CGGGTGGAAC | 0.969
144 | CGGGTTCACT | 1.09
145 | CGGGTTCGAT | 0.98
146 | CGGGTTGACT | 1.01
147 | CGGGTTTACT | 0.976
148 | CGGGTTTAGG | 1.08
149 | CGGTAAGTTT | 0.992
150 | CGGTAATAGT | 1.14

Row | Sequence | switch fluorescence ratio
151 | CGGTAGAAAG | 1.53
152 | CGGTAGCCGG | 1.01
153 | CGGTAGTACA | 1.03
154 | CGGTAGTATA | 0.99
155 | CGGTATCAAT | 1.03
156 | CGGTATCTAA | 1.04
157 | CGGTATGCTT | 0.99
158 | CGGTATTCAA | 1
159 | CGGTCAAGCA | 0.979
160 | CGGTCAATAG | 2.9
161 | CGGTCAGCGG | 1
162 | CGGTCCTCTG | 1.14
163 | CGGTCCTTTG | 1.01
164 | CGGTCTAGT | 0.996
165 | CGGTCTTGTC | 1.02
166 | CGGTCTTTCC | 1.06
167 | CGGTGAGTT | 1.27
168 | CGGTGCAGTA | 0.997
169 | CGGTGCATGC | 1.31
170 | CGGTGCCCGG | 0.982
171 | CGGTGGGAAA | 1.03
172 | CGGTGGGAAG | 1
173 | CGGTGTTATG | 1.01
174 | CGGTGTTCAC | 0.976
175 | CGGTGTTGGG | 1.02

Row | Sequence | switch fluorescence ratio
176 | CGGTGTTTAA | 0.978
177 | CGGTTACCTT | 0.991
178 | CGGTTGAGAT | 1.01
179 | CGGTTGCCGG | 1.02
180 | CGGTTGGCTC | 0.947
181 | CGGTTGTATC | 0.935
182 | CGGTTGTTAT | 0.973
183 | CGGTTTTGCA | 1.01
184 | CGTAAAAAAA | 1.08
185 | CGTAAAACAT | 0.988
186 | CGTAAATAAT | 0.996
187 | CGTAAATG | 1.04
188 | CGTAACGGAT | 0.974
189 | CGTAACTCGA | 0.984
190 | CGTAAGGAAG | 1.02
191 | CGTAAGTTAG | 1.02
192 | CGTACATATG | 1.02
193 | CGTACCACCA | 1.12
194 | CGTACGATAG | 1
195 | CGTACTTATG | 1.02
196 | CGTAGAGCCA | 0.963
197 | CGTAGATCG | 0.986
198 | CGTAGCAGCG | 1.08
199 | CGTAGCAGTG | 1.6
200 | CGTAGCCATT | 1.01
